From the supplement of paper PMC9990464
Where a name gives a salt, the structure may show the parent alone. The list shows a part of the results. Single values are uncertain, as repeats are few or missing.

What was measured:
Experiment in all cases: area under viability curve (10 nM-1 µM), viability relative to solvent or trametinib-only control (AUC (arbitrary, % viability x concentration range)); higher = less growth inhibition (more viable cells)
SJNB8 = conditions: 72 h compound exposure (96 h after seeding) h; trametinib co-treatment 0 µM
Procedure: (§1)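 Four neuroblastoma cell lines (KCNR, SKNBE, SJNB8, SKNAS) were seeded in 384-well plates. At 24 h, 1 µM trametinib or DMSO was added, followed by library compounds at 10 nM, 100 nM and 1 µM. Viability was read by MTT at 96 h and normalised to solvent-treated cells (DMSO arm) or to trametinib-only cells (trametinib arm). The area under the 3-point viability curve was computed in GraphPad Prism; units are as given (approx. 100000 = no effect).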

SKNAS = conditions: 72 h compound exposure (96 h after seeding) h
Procedure: as §1

SKNBE = conditions: 72 h compound exposure (96 h after seeding) h
Procedure: as §1

KCNR = conditions: 72 h compound exposure (96 h after seeding) h
Procedure: as §1
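Further: KCNR is a neuroblastoma cell line carrying an ALK mutation, in this DMSO arm without trametinib, viability was normalised to solvent-treated cells.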

| Structure (SMILES) | area under viability curve (SJNB8) | area under viability curve (SKNAS; trametinib co-treatment 0 µM) | area under viability curve (SKNAS; trametinib co-treatment 1 µM) | area under viability curve (SKNBE; trametinib co-treatment 0 µM) | area under viability curve (SKNBE; trametinib co-treatment 1 µM) | area under viability curve (KCNR; trametinib co-treatment 0 µM) | area under viability curve (KCNR; trametinib co-treatment 1 µM) |
| --- | --- | --- | --- | --- | --- | --- | --- |
| Cc1cccn2c(=O)c(C=C(C#N)c3nc4ccccc4s3)c(Oc3ccc(F)cc3)nc12 | 90500 | 119000 | 102000 | 96400 | 107000 | – | – |
| CC(C)C[C@H](NC(=O)[C@@H](Cc1c[nH]c2ccccc12)NC(=O)[C@H](Cc1ccc(O)cc1)NC(=O)[C@H](CO)NC(=O)[C@H](Cc1c[nH]c2ccccc12)NC(=O)[C@H](Cc1cnc[nH]1)NC(=O)[C@@H]1CCC(=O)N1)C(=O)N[C@@H](CCCN=C(N)N)C(=O)N1CCC[C@H]1C(=O)NCC(N)=O [Triptorelin acetate] | 65400 | 74500 | 98200 | 80900 | 100000 | – | – |
| O=C1CCc2c(ccc3ccccc23)O1 [Splitomicin] | 92600 | 120000 | 95500 | 107000 | 97600 | 103000 | 99600 |
| COCC[n+]1c2c(n(Cc3cnccn3)c1C)C(=O)c1ccccc1C2=O [Sepantronium bromide] | 62900 | 10400 | 4840 | 71300 | 10300 | – | – |
| Nc1nc(F)nc2c1ncn2[C@@H]1O[C@H](CO)[C@@H](O)[C@@H]1O [Fludarabine] | 110000 | 109000 | 99800 | 102000 | 101000 | 104000 | 98600 |
| CN1CCN(CCOc2cc(OC3CCOCC3)c3c(Nc4c(Cl)ccc5c4OCO5)ncnc3c2)CC1 [Saracatinib] | 57300 | 84400 | 83400 | 79900 | 87500 | – | – |
| CC(=O)O[C@H]1C(=O)[C@@]2(C)[C@H]([C@H](OC(=O)c3ccccc3)[C@]3(O)C[C@H](OC(=O)[C@H](O)[C@@H](NC(=O)c4ccccc4)c4ccccc4)C(C)=C1C3(C)C)[C@]1(OC(C)=O)CO[C@@H]1C[C@@H]2O [7-epi-Taxol] | 37000 | 29400 | 20900 | 42400 | 8960 | – | – |
| COc1cc2c(cc1OC)CN(CCc1ccc(NC(=O)c3cccc4c(=O)c5cccc(OC)c5[nH]c34)cc1)CC2 [Elacridar HCl] | 90600 | 86900 | 95500 | 107000 | 111000 | 101000 | 105000 |
| O=C(c1cc(Cc2n[nH]c(=O)c3ccccc23)ccc1F)N1CCN(C(=O)C2CC2)CC1 [Olaparib] | 82900 | 103000 | 104000 | 98800 | 103000 | 106000 | 108000 |
| COc1cc([C@@H]2c3cc4c(cc3[C@@H](O[C@@H]3O[C@@H]5CO[C@@H](c6cccs6)O[C@H]5[C@H](O)[C@H]3O)[C@H]3COC(=O)[C@H]23)OCO4)cc(OC)c1O [Teniposide] | 70700 | 57700 | 59900 | 65700 | 23700 | – | – |
| CCN1CCN(c2ccc(Nc3cc(N(C)C(=O)Nc4c(Cl)c(OC)cc(OC)c4Cl)ncn3)cc2)CC1 [Infigratinib] | 70800 | 107000 | 99000 | 101000 | 102000 | 102000 | 102000 |
| CC(C)C(=O)SCCCCCCC(=O)Nc1nc(-c2ccccc2)cs1 | 84400 | 91700 | 103000 | 98200 | 93700 | 99000 | 102000 |
| C=C(C)[C@@H](CC=C(C)C)C[C@@]12C[C@@H](CC=C(C)C)C(C)(C)[C@@](CC=C(C)C)(C(=O)C(C(=O)c3ccc(O)c(O)c3)=C1O)C2=O [Garcinol] | 77000 | 94400 | 98200 | 92600 | 101000 | – | – |
| COc1nc(N)nc2c1ncn2[C@@H]1O[C@H](CO)[C@@H](O)[C@@H]1O [Nelarabine] | 88500 | 119000 | 102000 | 107000 | 112000 | – | – |
| C=C1C(=O)O[C@@H](CCC)[C@@H]1C(=O)O [Butyrolactone 3] | 93800 | 102000 | 99600 | 105000 | 111000 | – | – |
| O=C(NC1CCNCC1)c1n[nH]cc1NC(=O)c1c(Cl)cccc1Cl | 98700 | 95700 | 73900 | 109000 | 85100 | – | – |
| O=C1c2c(O)ccc(O)c2C(=O)c2c(NCCNCCO)ccc(NCCNCCO)c21 [Mitoxanthrone HCl] | 58600 | 53800 | 41800 | 48500 | 16100 | – | – |
| Nc1ncn([C@H]2C[C@H](O)[C@@H](CO)O2)c(=O)n1 [Decitabine] | 86000 | 72200 | 89500 | 94900 | 77900 | – | – |
| O=Nc1ccc(O)c2ncccc12 | 96100 | 103000 | 98500 | 102000 | 101000 | – | – |
| CC(C)(F)C[C@H](N[C@@H](c1ccc(-c2ccc(S(C)(=O)=O)cc2)cc1)C(F)(F)F)C(=O)NC1(C#N)CC1 [Odanacatib] | 88900 | 96200 | 103000 | 108000 | 103000 | 100000 | 116000 |
| CCOc1cc2ncc(C#N)c(Nc3ccc(OCc4ccccn4)c(Cl)c3)c2cc1NC(=O)/C=C/CN(C)C [Neratinib] | 59700 | 75500 | 98800 | 69000 | 75600 | 94900 | 87500 |
| CC[C@]1(O)C[C@@H]2CN(CCc3c([nH]c4ccccc34)[C@@](C(=O)OC)(c3cc4c(cc3OC)N(C)[C@H]3[C@@](O)(C(N)=O)[C@H](O)[C@]5(CC)C=CCN6CC[C@]43[C@@H]65)C2)C1 [Vindesine sulfate] | 44300 | 21600 | 18800 | 38000 | 4410 | – | – |
| CN1CC[C@H](c2c(O)cc(O)c3c(=O)cc(-c4ccccc4Cl)oc23)[C@H](O)C1 [Flavopiridol] | 38300 | 39500 | 58100 | 31900 | 37100 | 53900 | 49400 |
| Cc1cn([C@H]2C[C@H](O)[C@@H](CO)O2)c(=O)nc1N [2'-Deoxy-5-methylcytidine] | 104000 | 109000 | 103000 | 97400 | 97300 | – | – |
| CC(=O)[O-].CC(=O)[O-].N.NC1CCCCC1.[Cl-].[Cl-].[Pt+4] [Satraplatin] | 85300 | 90900 | 93900 | 82200 | 70200 | – | – |
| Nc1ccn([C@@H]2O[C@H](CO)[C@@H](O)[C@@H]2O)c(=O)n1 [Cytarabine] | 55400 | 65600 | 69900 | 68800 | 62100 | – | – |
| Clc1ccc(Nc2nnc(Cc3ccncc3)c3ccccc23)cc1 [Vatalanib HCl] | 82300 | 82000 | 99800 | 92600 | 101000 | – | – |
| Cc1cc(NC(=O)Nc2ccc(N(C)C)cc2)c2cc(F)cc(F)c2n1 | 96500 | 98900 | 96600 | 101000 | 102000 | – | – |
| COc1cc2c(Oc3ccc(NC(=O)C4(C(=O)Nc5ccc(F)cc5)CC4)cc3F)ccnc2cc1OCCCN1CCOCC1 [Foretinib] | 65300 | 76500 | 82800 | 62800 | 72900 | – | – |
